Results published in the antibiotic and cytotoxicity screens of Wong et al. (2023).
The other results are listed elsewhere or left out.

system: HepG2; experiment: cytotoxicity call (relative viability < 0.9); conditions: 10 µM

Row | SMILES | cytotoxicity call
1 | Cc1noc(C)c1S(=O)(=O)N(C)C[C@@H]1Oc2ccc(NC(=O)CCCN(C)C)cc2C(=O)N([C@H](C)CO)C[C@@H]1C | inactive
2 | Cn1cnc(S(=O)(=O)N2C[C@@H](O)COC[C@H]3O[C@H](CC(=O)NC4Cc5ccccc5C4)CC[C@@H]32)c1 | inactive
3 | C[C@@H]1CCCCO[C@H](CN(C)C(=O)C2CCCCC2)[C@@H](C)CN([C@@H](C)CO)C(=O)c2cc(NC(=O)C3CCCCC3)ccc2O1 | inactive
4 | C[C@@H]1O[C@@H](O[C@H]2[C@@H](Oc3cc(O)c4c(c3)O[C@H](c3ccc(O)cc3)CC4=O)O[C@H](CO)[C@@H](O)[C@@H]2O)[C@H](O)[C@H](O)[C@H]1O | inactive
5 | NC[C@H]1O[C@H](O[C@H]2[C@H](O)[C@@H](O[C@H]3O[C@H](CO)[C@@H](O)[C@H](N)[C@H]3O)[C@H](N)C[C@@H]2N)[C@H](N)C[C@@H]1O | inactive
6 | COc1ccc(S(=O)(=O)Nc2ccc3c(c2)C(=O)N([C@@H](C)CO)C[C@@H](C)[C@H](CN(C)S(C)(=O)=O)O3)cc1 | inactive
7 | Cc1cc(C(=O)Nc2cccc3c2O[C@H](CN(C)Cc2ccc(Oc4ccccc4)cc2)[C@@H](C)CN([C@H](C)CO)C3=O)n(C)n1 | active
8 | CC(C)NC(=O)Nc1ccc2c(c1)C(=O)N([C@H](C)CO)C[C@H](C)[C@@H](CN(C)C(=O)Nc1ccc(F)cc1)OCCCC[C@H](C)O2 | inactive
9 | NC1CCN(C(=O)Nc2nncs2)CC1 | inactive
10 | C[C@H]1CCCCO[C@H](CN(C)Cc2ccc(C(F)(F)F)cc2)[C@@H](C)CN([C@@H](C)CO)C(=O)c2cc(NC(=O)NC3CCCCC3)ccc2O1 | active
11 | C[C@@H]1CN([C@H](C)CO)C(=O)c2cccc(NS(=O)(=O)c3cccs3)c2O[C@@H]1CN(C)Cc1ccc(Oc2ccccc2)cc1 | inactive

system: S. aureus RN4220; experiment: growth inhibition call (relative growth <= 0.2); conditions: 50 µM

Row | SMILES | growth inhibition call
12 | C[C@@H]1CCCCO[C@@H](CN(C)Cc2ccc(C(=O)O)cc2)[C@@H](C)CN([C@@H](C)CO)C(=O)c2cc(NC(=O)Cc3ccccc3)ccc2O1 | inactive
13 | C[C@@H]1CN([C@H](C)CO)C(=O)c2cc(NS(C)(=O)=O)ccc2O[C@H]1CN(C)Cc1ccc(C(=O)O)cc1 | inactive
14 | Cn1cnc(S(=O)(=O)N[C@@H]2CC[C@H](CC(=O)N3CCN(c4ccccc4)CC3)O[C@@H]2CO)c1 | inactive
15 | C[C@H]1CCc2c(sc(/N=C/C=C/c3ccccc3)c2C#N)C1 | inactive
16 | CC(C)(C)CC(C)(C)c1ccc(O)c(Cc2ccc(Cl)cc2Cl)c1 | inactive
17 | C[C@H](CO)N1C[C@H](C)[C@@H](CN(C)C(=O)Nc2ccc(C(F)(F)F)cc2)OCCCC[C@H](C)Oc2ccc(NC(=O)Cc3ccccc3)cc2C1=O | inactive
18 | CN(C)[C@@H](CN)c1cccn1C | inactive
19 | CCN(CC)CCNC(=O)c1ccc(N)cc1.Cl | inactive
20 | COc1ccc(-c2nc(N3CCOCC3)c3sc(CN(C)c4ncc(C(=O)NO)cn4)cc3n2)cn1 | inactive
21 | O=C(O)c1ccc(O)cc1O | inactive
22 | Cc1cc(C(=O)Nc2cccc3c2O[C@@H](CN(C)S(=O)(=O)c2cccs2)[C@@H](C)CN([C@H](C)CO)C3=O)n(C)n1 | inactive
23 | C[C@@H]1CCCCO[C@@H](CN(C)S(=O)(=O)c2cccs2)[C@@H](C)CN([C@H](C)CO)C(=O)c2cc(NS(=O)(=O)c3ccc(Cl)cc3)ccc2O1 | inactive
24 | C[C@@H]1CN([C@@H](C)CO)S(=O)(=O)c2ccc(-c3cccc(C#N)c3)cc2O[C@H]1CN(C)C(=O)c1cccnc1 | inactive
25 | C[C@@H]1CCCCO[C@@H](CN(C)C(=O)Nc2ccc(F)cc2)[C@H](C)CN([C@@H](C)CO)C(=O)c2cc(NC(=O)NC3CCCCC3)ccc2O1 | inactive
26 | CC(=O)N(O)CCCCCNC(=O)CCC(=O)N(O)CCCCCNC(=O)CCC(=O)N(O)CCCCCN | inactive
27 | C[C@H]1CCCCO[C@H](CN(C)C(=O)Nc2ccc(C(F)(F)F)cc2)[C@@H](C)CN([C@@H](C)CO)C(=O)c2cc(NC(=O)Nc3ccc(C(F)(F)F)cc3)ccc2O1 | inactive
28 | Cc1noc(C)c1S(=O)(=O)Nc1cccc2c1O[C@@H](CN(C)Cc1ccc(-c3ccccc3)cc1)[C@@H](C)CN([C@@H](C)CO)C2=O | inactive
29 | C[C@H]1CN([C@@H](C)CO)C(=O)Cc2cc(NC(=O)c3ccncc3)ccc2O[C@@H]1CN(C)Cc1ccc(Oc2ccccc2)cc1 | inactive
30 | COCCOC(=O)N1C(=O)[C@@]2(c3cc(C#CCNC(N)=O)ccc31)[C@H](C(=O)N1CCc3cc(OC)c(OC)cc3C1)[C@H]1C(=O)O[C@H](c3ccccc3)[C@H](c3ccccc3)N1[C@@H]2c1ccccc1OCCO | inactive
31 | C[C@@H]1CN([C@H](C)CO)C(=O)c2cccc(NS(=O)(=O)c3cccs3)c2O[C@@H]1CN(C)S(=O)(=O)c1cn(C)cn1 | inactive

Row | SMILES | growth inhibition call
32 | C[C@H]1CN([C@@H](C)CO)C(=O)c2cccc(NC(=O)C3CCCCC3)c2O[C@@H]1CN(C)C(=O)Nc1cccc2ccccc12 | inactive
33 | Cc1noc(C)c1S(=O)(=O)N(C)C[C@@H]1OCCCC[C@@H](C)Oc2ccc(NS(=O)(=O)c3cn(C)cn3)cc2C(=O)N([C@H](C)CO)C[C@@H]1C | inactive
34 | C[C@H](O)C#Cc1cnc2c(c1)C(=O)N([C@H](C)CO)C[C@@H](C)[C@@H](CN(C)C(=O)Nc1ccc(C(F)(F)F)cc1)O2 | inactive
35 | CCCNC(=O)C[C@H]1CC[C@H]2[C@@H](COc3ccc(NC(=O)Nc4ccc(C#N)cc4)cc3C(=O)N2C)O1 | inactive
36 | C[C@H]1CCCCO[C@H](CN(C)C(=O)C2CCCCC2)[C@@H](C)CN([C@@H](C)CO)C(=O)c2cc(NC(=O)c3ccncc3)ccc2O1 | inactive
37 | CC(C)NC(=O)N(C)C[C@@H]1Oc2c(NC(=O)Nc3ccc4c(c3)OCO4)cccc2C(=O)N([C@@H](C)CO)C[C@H]1C | inactive
38 | C[C@@H]1[C@@H](c2ccccc2)OC(=O)[C@@H]2[C@H]3C(=O)N([C@@H](C)CO)[C@@H]4C(=O)N(Cc5ccccc5)CC=C[C@]34O[C@@H]2/C=C/CCC(=O)N1C | inactive
39 | COc1ccc(S(=O)(=O)N(C)C[C@H]2Oc3ccc(NC(=O)Nc4cccc5ccccc45)cc3C(=O)N([C@@H](C)CO)C[C@@H]2C)cc1 | inactive
40 | Cc1noc(C)c1NC(=O)N[C@H]1CC[C@@H](CC(=O)NCCCN(C)C)O[C@H]1CO | inactive
41 | Cc1noc(C)c1S(=O)(=O)N(C)C[C@@H]1Oc2ccc(NC(=O)CCCN(C)C)cc2C(=O)N([C@H](C)CO)C[C@@H]1C | inactive
42 | Cn1cnc(S(=O)(=O)N2C[C@@H](O)COC[C@H]3O[C@H](CC(=O)NC4Cc5ccccc5C4)CC[C@@H]32)c1 | inactive
43 | C[C@@H]1CCCCO[C@H](CN(C)C(=O)C2CCCCC2)[C@@H](C)CN([C@@H](C)CO)C(=O)c2cc(NC(=O)C3CCCCC3)ccc2O1 | inactive
44 | C[C@@H]1O[C@@H](O[C@H]2[C@@H](Oc3cc(O)c4c(c3)O[C@H](c3ccc(O)cc3)CC4=O)O[C@H](CO)[C@@H](O)[C@@H]2O)[C@H](O)[C@H](O)[C@H]1O | inactive
45 | NC[C@H]1O[C@H](O[C@H]2[C@H](O)[C@@H](O[C@H]3O[C@H](CO)[C@@H](O)[C@H](N)[C@H]3O)[C@H](N)C[C@@H]2N)[C@H](N)C[C@@H]1O | active
46 | COc1ccc(S(=O)(=O)Nc2ccc3c(c2)C(=O)N([C@@H](C)CO)C[C@@H](C)[C@H](CN(C)S(C)(=O)=O)O3)cc1 | inactive
47 | Cc1cc(C(=O)Nc2cccc3c2O[C@H](CN(C)Cc2ccc(Oc4ccccc4)cc2)[C@@H](C)CN([C@H](C)CO)C3=O)n(C)n1 | inactive
48 | CC(C)NC(=O)Nc1ccc2c(c1)C(=O)N([C@H](C)CO)C[C@H](C)[C@@H](CN(C)C(=O)Nc1ccc(F)cc1)OCCCC[C@H](C)O2 | inactive
49 | NC1CCN(C(=O)Nc2nncs2)CC1 | inactive
50 | C[C@H]1CCCCO[C@H](CN(C)Cc2ccc(C(F)(F)F)cc2)[C@@H](C)CN([C@@H](C)CO)C(=O)c2cc(NC(=O)NC3CCCCC3)ccc2O1 | inactive
51 | C[C@@H]1CN([C@H](C)CO)C(=O)c2cccc(NS(=O)(=O)c3cccs3)c2O[C@@H]1CN(C)Cc1ccc(Oc2ccccc2)cc1 | inactive
